Counter-ions that a name gives are not always drawn. This is one part of the list. The data scatter; read single values as rough. Residues, ends and D or L forms follow the SMILES beside them.
Columns and labels:
Test in all cases: ALDHbr (CSC) cell proportion score relative to DMSO vehicle (ratio to DMSO); breast (SUM159) / gastric (MKN45) / pancreatic (PANC1) / colon cancer lines; ALDHbr cells have high ALDH activity and are rich in cancer stem cells (CSC); higher = more CSC (ALDHbr) cells remaining
Details in all cases: 10 µM; 72 h
MKN45 = system: MKN45
PANC1 = system: PANC1
SUM159 = system: SUM159
T84 = system: T84
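Further: High-content imaging of ALDEFLUOR-stained cells with Hoechst-labelled nuclei in 384-well plates, triplicate wells, scored as Z-score against 0.1% DMSO vehicle, negative meaning fewer ALDHbr cells.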

Structure (SMILES)	ALDHbr (MKN45)	ALDHbr (PANC1)	ALDHbr (SUM159)	ALDHbr (T84)
Clc1ccc(CCC(Cn2ccnc2)Sc2c(Cl)cccc2Cl)cc1 (configuration not stated) [Butoconazole nitrate]	0.513	0.993	1.47	0.61
NC(=O)c1ncn([C@@H]2O[C@H](CO)[C@@H](O)[C@H]2O)n1 [Ribavirin]	1.54	0.967	0.753	0.778
CC[C@H](C)C(=O)O[C@H]1C[C@@H](C)C=C2C=C[C@H](C)[C@H](CC[C@@H]3C[C@@H](O)CC(=O)O3)[C@H]21 [Lovastatin]	0.47	1.45	0.453	0.794
O=C1C(=O)c2ccccc2C(O)=C1C1CCC(c2ccc(Cl)cc2)CC1 (configuration not stated) [Atovaquone]	0.564	1.1	1.14	0.934
COc1ccc(C(=O)NCc2cccnc2)cc1C(=O)NCc1cccnc1 [Picotamide monohydrate]	0.972	0.834	0.899	0.917
COc1ccc(OC)c(C(O)CNC(=O)CN)c1 (configuration not stated) [Midodrine hydrochloride]	0.739	0.748	0.883	0.774
NC(Cc1cc(I)c(Oc2cc(I)c(O)c(I)c2)c(I)c1)C(=O)O (configuration not stated) [Thyroxine (L)]	1.19	1.17	1.12	0.812
Cc1cc(-n2c(=O)[nH]c(=O)n(C)c2=O)ccc1Oc1ccc(SC(F)(F)F)cc1 [Toltrazuril]	1.03	0.921	1.09	1.09
CCCCCN(CCCCC)C(=O)C(CCC(=O)O)NC(=O)c1ccc(Cl)c(Cl)c1 (configuration not stated) [Lorglumide sodium salt]	0.928	0.913	1.12	1.02
O=C(O)c1cc(/N=N/c2ccc(S(=O)(=O)Nc3ccccn3)cc2)ccc1O [Sulfasalazine]	0.963	1.04	1.06	0.791
Cc1nc2n(c(=O)c1CCN1CCC(c3noc4cc(F)ccc34)CC1)CCCC2 [Risperidone]	0.784	0.951	0.816	0.836
CCN(CC)CCOC(=O)C(Cc1cccc2ccccc12)CC1CCCO1 (configuration not stated) [Nafronyl oxalate]	1.13	0.918	0.805	0.946
Cn1ccnc1S [Methimazole]	1.08	0.899	1.12	1.25
Cc1cn([C@H]2C=C[C@@H](CO)O2)c(=O)[nH]c1=O [Stavudine]	0.921	0.942	1.97	1.07
CC(=O)OCC(=O)[C@@]1(O)[C@H](C)C[C@H]2[C@@H]3CCC4=CC(=O)C=C[C@]4(C)[C@@]3(F)[C@@H](O)C[C@@]21C [Dexamethasone acetate]	0.901	0.588	1.01	0.974
CCCCOc1ccc(CC(=O)NO)cc1 [Bufexamac]	0.442	0.54	1.46	0.651
CCOc1nc2cccc(C(=O)OCc3oc(=O)oc3C)c2n1Cc1ccc(-c2ccccc2-c2noc(=O)[nH]2)cc1 [Azilsartan kamedoxomil]	0.949	0.887	1.09	0.941
CCOc1ccc2ccccc2c1C(=O)N[C@@H]1C(=O)N2[C@@H]1SC(C)(C)[C@@H]2C(=O)O [Nafcillin sodium salt monohydrate]	0.797	0.969	1.19	0.97
O=C1CC[C@@H](C(=O)N2CSC[C@H]2C(=O)O)N1 [Pidotimod] (HELM PEPTIDE1{[Glp].[O=C(O)[C@@H]1CSCN1[*:1]]}$$$$V2.0)	1.08	0.917	1.09	1.12
C[C@@H](O)[C@H]1C(=O)N2C(C(=O)O)=C(S[C@@H]3CN[C@H](C(=O)N(C)C)C3)[C@H](C)[C@H]12 [Meropenem]	1.06	0.856	0.835	0.79
O=C(NC(Cc1cc(=O)[nH]c2ccccc12)C(=O)O)c1ccc(Cl)cc1 (configuration not stated) [Rebamipide]	0.925	0.973	1.12	0.956
COc1c(N2C[C@@H]3CCCN[C@@H]3C2)c(F)cc2c(=O)c(C(=O)O)cn(C3CC3)c12 [Moxifloxacin]	1.47	0.984	0.912	1.14
C=C1C[C@H]2[C@@H]3C=C(C)C4=CC(=O)CC[C@]4(C)[C@H]3CC[C@]2(C)[C@@]1(OC(C)=O)C(C)=O [Melengestrol acetate]	0.595	0.572	0.684	0.794
CC(=O)N[C@@H](CS)C(=O)O [Acetylcysteine]	1.22	0.947	0.949	0.901
CCCCOc1ccc(C(=O)CCN2CCCCC2)cc1 [Dyclonine hydrochloride]	0.726	0.555	0.421	0.716
CNCCC(Oc1ccc(C(F)(F)F)cc1)c1ccccc1 (configuration not stated) [Fluoxetine hydrochloride]	1.13	1.06	0.576	0.438
CC1(C)O[C@@H]2[C@@H](CO[C@@]3(COS(N)(=O)=O)OC(C)(C)O[C@@H]23)O1 [Topiramate]	1.03	0.912	0.751	0.85
COc1ccc(-c2ccc3cc(C(=O)O)ccc3c2)cc1C12CC3CC(CC(C3)C1)C2 [Adapalene]	0.123	1.69	0.426	0.2

Reference: the supplement of paper PMC11880418
